Results: PubChem BioAssay AID485344 (National Center for Advancing Translational Sciences (NCATS), 2010)
Among all 340,000 compounds or so, about 6,900 (2%) were called active. Rule as the data show it: active = inhibition above about 30%; inactive = below that, where a call was filed. This is a selection; strong and weak results do not stand in their true shares. The source gives no active or inactive call for entries shown without one.

target: D(2) dopamine receptor (Homo sapiens) (UniProt P14416); assay: HTS Assay for Allosteric Antagonists of the Human D2 Dopamine Receptor: Primary Screen for Antagonists; details: HEK293 TREx D2 cells, calcium flux, dopamine EC80; at 10 µM; stronger effect = higher value; also: 0% is about no effect
Sequence of UniProt P14416 (P14416 whole entry, looked up): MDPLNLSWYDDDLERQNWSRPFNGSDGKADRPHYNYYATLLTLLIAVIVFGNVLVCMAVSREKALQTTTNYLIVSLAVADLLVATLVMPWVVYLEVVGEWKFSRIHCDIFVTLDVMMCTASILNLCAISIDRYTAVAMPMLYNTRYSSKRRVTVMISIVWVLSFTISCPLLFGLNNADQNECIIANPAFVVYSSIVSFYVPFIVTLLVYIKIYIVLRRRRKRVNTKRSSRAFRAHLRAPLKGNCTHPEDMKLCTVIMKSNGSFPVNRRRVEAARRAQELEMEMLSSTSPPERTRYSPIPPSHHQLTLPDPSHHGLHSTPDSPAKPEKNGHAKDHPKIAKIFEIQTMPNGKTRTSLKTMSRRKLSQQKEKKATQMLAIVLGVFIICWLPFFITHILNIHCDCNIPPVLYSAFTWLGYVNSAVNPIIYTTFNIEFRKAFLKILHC
In short: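 Tetracycline-induced HEK293 TREx cells expressing D2 receptor forced-coupled to calcium signalling, loaded with no-wash calcium dye. Compounds added and calcium flux read 180 s, then dopamine added at EC80 and read a further 180 s.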

Compound | inhibition
COc1ccc(-c2cnc(C)o2)cc1S(=O)(=O)Nc1ccc(NC(C)=O)cc1 | -11%
Cn1c(=O)oc2cc(S(=O)(=O)CCC(=O)N3CCN(c4ccccc4F)CC3)ccc21 | 13.3%
O=C(CCn1c(=O)c2cccn2c2cccnc21)N1CCN(c2ccccc2)CC1 | -3.25%
CCn1cc(C(=O)Nc2cccc(Cl)c2)c2cc(OC)c(OC)cc2c1=O | -11.8%
Cc1cc(C)cc(NC(=O)CSc2nc3c(c(=O)[nH]2)CN(Cc2ccc(F)cc2)CC3)c1 | 1.72%
COc1ccccc1N1CCN(C(=O)Cn2c(=O)n3nc(-c4cccc(F)c4)nc3c3ccccc32)CC1 | -7.16%
Brc1ccc(-c2noc(COc3ccc4c(c3)CCC4)n2)o1 | active: 42.7%
Cc1ccccc1COC(=O)c1nn(-c2ccccc2)nc1N | -4.64%
CCCCN(CC)CCNC(=O)C1CCN(S(=O)(=O)c2cccc3nsnc23)CC1 | 9.11%
CCNC(=O)c1ccc(NC(=O)N2CCCCc3ccccc32)cc1 | 11.5%
O=C(COc1ccc([N+](=O)[O-])cc1)Nc1cccc(C(=O)Nc2ccccc2C(=O)O)c1 | active: 52%
COc1ccc(Cc2nn3c(Cn4nnc5ccccc54)nnc3s2)cc1 | active: 39%
CC(=O)c1ccc(N2CCN(S(=O)(=O)c3ccc(-c4coc(C)n4)cc3)CC2)cc1 | 10%
COc1ccc(-c2noc(CCC(=O)NCCCN3CCN(c4ccccc4F)CC3)n2)cc1 | active: 84%
CCOc1cc(-c2ccc(OC(=O)c3ccccc3Cl)c(OC)c2)cc(=O)c2c(C)oc(C)c12 | -8.68%
Cc1cccc(C)c1NC(=O)c1ccc2c(c1)nnn2C1CCCC1 | -6.54%
CCOC(=O)c1cc2occc2n1Cc1c(F)cccc1Cl | active: 31.2%
COc1ccc(-c2nn3c(=O)cc(CN4CCN(C(=O)/C=C/c5ccccc5)CC4)nc3s2)cc1 | 8.64%
COc1ccc(C2CC(=O)Nc3c2c(=O)[nH]c2nc4ccccc4n32)cc1 (stereo not given) | 19.7%
O=C(/C=C/c1ccccc1Cl)N1CCC(c2nc3ccccc3o2)CC1 | -14.1%
CCOc1ccc(NC(=O)c2sc3nc4n(c(=O)c3c2C)CCC4)cc1 | -5.14%
COC(=O)N1CCCc2cc(S(=O)(=O)NCc3ccccc3)ccc21 | -14.6%
COc1cc(NC(=O)CN2CCN(c3ccc(F)cc3)CC2)cc(OC)c1 | -28.3%
Cc1nn(CC(=O)NC2CCC(C)CC2)c(=O)c2c1sc1ccccc12 (stereo not given) | 6.08%

Compound | inhibition
CCn1cc2nc(SCC(=O)Nc3cc(OC)cc(OC)c3)n(Cc3ccc(Cl)cc3)c(=O)c2n1 | 13.2%
Cc1cc(C)c(Nc2ncnc3c2cnn3C)c(C)c1 | -4.94%
Cc1ccc(NC(=O)CCc2c(C)nc3c(-c4ccc(F)cc4)c(C)nn3c2C)cc1F | 17.7%
Cc1ccc2oc(-c3ccc(NC(=O)CCC(=O)O)cc3)nc2c1 | 21.8%
Cc1ccc(CCNC(=O)Cc2ccc(NC3=NC4CS(=O)(=O)CC4S3)cc2)cc1 (stereo not given) | active: 37.7%
COc1cc(NC(=O)CSc2nc3ncccc3o2)cc(OC)c1 | -13.1%
COc1ccc(CCNC(=O)Cc2c(C)c3cc4c(C(C)(C)C)coc4c(C)c3oc2=O)cc1 | 2.46%
OC(COCc1cccs1)CN1CCN(c2cccc(C(F)(F)F)c2)CC1 (stereo not given) | active: 50.4%
Cc1ccc(CNC(=O)c2cc3c(=O)n(Cc4ccco4)ccc3nc2C)cc1 | -15.8%
COc1ccc(CC(C)N2CCN(c3ccccc3)CC2)cc1OC (stereo not given) | active: 66.2%
Cc1ccc(C)c(Nc2cc(C(=O)NC3CCCC3)c3ccccc3n2)c1 | -2.79%
O=C(NCC1CCCO1)c1nnc(Cc2ccc(F)cc2)o1 (stereo not given) | active: 38.9%
COc1ccc(NC(=O)CC2C(=O)N(c3ccc(OC)cc3)C(=O)N2CCC2=CCCCC2)cc1 (stereo not given) | 18.8%
CCOC(=O)c1c(NC(=O)COc2ccc(Cl)cc2C)sc2c1CCCCC2 | -9.96%
Cc1ccc(CNC(=O)CS(=O)(=O)c2cccc3nsnc23)cc1 | -1.75%
COc1cccc(NC(=O)Cn2c(=O)n(CCC(=O)NCCc3ccc(Cl)cc3)c(=O)c3ccccc32)c1 | 3.87%
COc1ccc(-c2nc(CS(=O)(=O)CC(=O)NCc3ccccc3Br)c(C)o2)cc1 | 3.3%
COc1ccc(C(=O)CCN2CCN(c3ccc(OC)cc3)CC2)cc1 | active: 31.1%
O=C(NCCCN1CCCCCC1)c1ccc2c(c1)sc1nc(-c3ccccc3)cn12 | 3.03%
Cc1nc2cc(-c3ccccc3)nn2c(C)c1CCC(=O)Nc1ccc(F)cc1F | -0.0044%
CCC(C(=O)Nc1ccc(C)c(C)c1)n1c(=O)c(C(F)(F)F)nc2ccccc21 (stereo not given) | 1.78%
CCOc1ccc(NC(=O)CCc2c(C)nn(-c3ccc(N4CCCC4)nn3)c2C)cc1 | 2.23%
Cc1ccc(CNC(=O)CCCn2c(=O)c3ccccc3n(CC(=O)Nc3ccc(C)cc3)c2=O)cc1 | -3.51%
CCOc1ccc(CCNC(=O)CS(=O)(=O)Cc2nc(-c3ccc(OC)cc3)oc2C)cc1 | 25.4%

Compound | inhibition
COc1ccc(Cn2c(=O)n(Cc3ccco3)c(=O)c3oc4ccccc4c32)cc1 | 0.893%
Cc1cccc2sc(N(CCN(C)C)C(=O)c3ccc4c(c3)OCCO4)nc12 | 19.8%
Cc1nc2scc(C)n2c(=O)c1S(=O)(=O)NCC1CCN(Cc2ccc(F)cc2)CC1 | active: 34.2%
Cc1ccccc1OCc1nc2ccccc2c(=O)n1/N=C/c1cn[nH]c1-c1ccccc1 | active: 56.7%
Cc1cc(OC(C)C(=O)Nc2cccc(-c3nc4ccccc4o3)c2)cc(C)c1Cl (stereo not given) | 11.8%
O=C(CSc1nnc(-c2ccco2)n1-c1ccccc1)N1CCN(C(=O)c2ccco2)CC1 | active: 65.1%
CC(C)N(C(=O)COC(=O)[C@@H]1CC(O)CN1S(=O)(=O)c1ccc(C(C)(C)C)cc1)C(C)C (stereo not given in full) | active: 37.8%
COc1ccc(-c2nc(CSCC(=O)N3CCN(c4cc(Cl)ccc4C)CC3)c(C)o2)cc1 | -20.6%
Cc1ccc(Cn2c(C)c3cnn(CC(=O)NCc4ccccc4)c(=O)c3c2C)cc1 | -5.51%
CC(=O)N1CCc2cc(S(=O)(=O)CCC(=O)Nc3ccc(C)cc3Br)ccc21 | 0.723%
CCN(CC)c1ccc(NC(=O)c2cnn(-c3ccccc3)c2-n2cccc2)c(C)c1 | 3.77%
Cc1cccc(NS(=O)(=O)c2ccc3c(c2)CC(C)N3C(=O)C2CCC2)c1C (stereo not given) | 28.2%
Cc1ccc(-c2nc3ncccn3c2Nc2ccc3c(c2)OCCO3)cc1 | 0.184%
O=C(CCS(=O)(=O)c1ccc(Br)cc1)Nc1ccc(F)cc1F | -12.1%
COc1cccc2c1cc1c(=O)n(CC(=O)N3CCN(c4ccccc4)CC3)nc(C)n12 | -23%
CCOc1ccc(N2CC(c3nc4ccccc4n3CCOc3ccccc3OC)CC2=O)cc1 (stereo not given) | -0.414%
O=C1CC(c2nc(-c3ccccc3)no2)CN1c1ccccc1 (stereo not given) | 2.6%
CCOC(=O)c1ccc(N2C(=O)c3n[nH]c(-c4ccco4)c3C2c2cccc(OC)c2)cc1 (stereo not given) | 13.4%
CC1CCN(CCOCCOc2ccccc2-c2ccccc2)CC1 | active: 55.8%
Cc1oc(-c2ccc(C(=O)NCc3cccc(F)c3)cc2)nc1COc1ccccc1 | -12.8%
COCCCNC(=O)c1ccc(-c2nc(CS(=O)(=O)c3ccc(C)cc3)c(C)o2)cc1 | 1.46%
COc1ccc(NC(=O)CCc2c(C)nn(-c3ccc(N4CCCCC4)nn3)c2C)cc1Cl | 11.3%
Cc1ccccc1NC(=O)CSc1nc2ccccc2c2nc(CCn3cncc3C)nn12 | -1.23%
N#Cc1c(C(F)(F)F)cc(-c2ccc(F)cc2)nc1SCC(=O)Nc1ccccc1 | -2.99%

Compound | inhibition
CCn1c(C(=O)N2CCC(C(=O)NCCc3ccc(C)cc3)CC2)cc2sccc21 | -9.28%
Cc1ccc(Cn2ccnc2SCC(=O)NCc2ccccc2Cl)cc1 | 13%
Cc1ccc(CNC(=O)C(C)n2nc(C)n3c(cc4sccc43)c2=O)cc1 (stereo not given) | -3.61%
Cc1ccc(S(=O)(=O)N(CC(=O)Nc2ccc(Cl)cc2Cl)c2ccccc2C)cc1 | -4.73%
COc1ccccc1C(=O)Nc1cccc(C(=O)OCc2cc(=O)n3ccsc3n2)c1 | -15%
Cc1cccc(NC(=O)CSc2nc(-c3ccccc3)cc(=O)[nH]2)c1C | 5.93%
Cc1ccc(C(C)C)c(OCC(O)CN2CCN(c3ccccc3F)CC2)c1 (stereo not given) | 4.85%
Cc1ccc(NC(=O)CCC(=O)N2Cc3ccccc3Oc3ncccc32)c(C)c1 | -4.92%
CCOc1ccc(CCNC(=O)CN2C(=O)COc3ccc(S(=O)(=O)N4CCCC4)cc32)cc1 | -13%
CCn1c(=N)c(C(=O)NCc2ccccc2)cc2c(=O)n3cccc(C)c3nc21 | 18.7%
Cc1cccc(-c2nc(C)c(CCNC(=O)C(=O)Nc3ccccc3C#N)s2)c1 | 10.1%
COc1ccc(-n2nnnc2C2CCN(S(=O)(=O)c3ccc(NC(C)=O)cc3)CC2)cc1 | -2.71%
COc1ccc(Cl)cc1S(=O)(=O)NCc1ccc2c(c1)CCN2C(=O)c1cccc(C)c1 | -20.6%
CC(C)c1ccc(C2NC(=O)c3n[nH]c(-c4cccs4)c32)cc1 (stereo not given) | 7.16%
CCS(=O)(=O)c1ncc(Cl)c(C(=O)Nc2ccc(S(=O)(=O)N(C)c3ccccc3)cc2)n1 | 7.66%
Cc1nn(-c2ccc(N3CCOCC3)nn2)c(C)c1CCC(=O)NCc1ccc(Cl)cc1 | 3.43%
CC1CCCCN1CCNC(=O)c1ccc(Cn2c(SCc3ccccc3)nc3cccnc32)cc1 (stereo not given) | -2.81%
Cc1cccc(C)c1Nc1sc(C(=O)c2ccccc2)c(N)c1S(=O)(=O)c1ccccc1 | 24.9%
COc1ccc2nc3sc(C(=O)NCCc4ccc(Cl)cc4)cc3cc2c1 | 6.14%
C=Cc1ccc(CN2C(=O)N(c3ccc(C)c(C)c3)S(=O)(=O)c3ccccc32)cc1 | 21%
COc1ccccc1C(=O)Nc1nnc(SCc2cc(=O)c3ccccc3[nH]2)s1 | 18%
CCN(C(=O)c1ccc(C(=O)N(CC)c2ccccc2C)cc1)c1ccccc1C | 10.4%
CCOc1ccc(NC(=O)c2cc3cc4ccc(C)cc4nc3o2)cc1 | -7.16%
